Reference: the supplement of paper PMC3334620
The full ranking holds about 33,000 sequences; the median of “E-score (-0.5 to 0.5)” is about -0.011, and the highest 2% start at about 0.28. The list shows a part of the results.

biological target: T1, Gcr1 (UniProt P07261); assay: PBM E-score (8-mer binding enrichment) (E-score (-0.5 to 0.5)); higher = stronger / more preferred TF binding; most listed sequences are background and not binding sites; details: protein concentration: 100 nM; construct: GST-full length
T1 sequence: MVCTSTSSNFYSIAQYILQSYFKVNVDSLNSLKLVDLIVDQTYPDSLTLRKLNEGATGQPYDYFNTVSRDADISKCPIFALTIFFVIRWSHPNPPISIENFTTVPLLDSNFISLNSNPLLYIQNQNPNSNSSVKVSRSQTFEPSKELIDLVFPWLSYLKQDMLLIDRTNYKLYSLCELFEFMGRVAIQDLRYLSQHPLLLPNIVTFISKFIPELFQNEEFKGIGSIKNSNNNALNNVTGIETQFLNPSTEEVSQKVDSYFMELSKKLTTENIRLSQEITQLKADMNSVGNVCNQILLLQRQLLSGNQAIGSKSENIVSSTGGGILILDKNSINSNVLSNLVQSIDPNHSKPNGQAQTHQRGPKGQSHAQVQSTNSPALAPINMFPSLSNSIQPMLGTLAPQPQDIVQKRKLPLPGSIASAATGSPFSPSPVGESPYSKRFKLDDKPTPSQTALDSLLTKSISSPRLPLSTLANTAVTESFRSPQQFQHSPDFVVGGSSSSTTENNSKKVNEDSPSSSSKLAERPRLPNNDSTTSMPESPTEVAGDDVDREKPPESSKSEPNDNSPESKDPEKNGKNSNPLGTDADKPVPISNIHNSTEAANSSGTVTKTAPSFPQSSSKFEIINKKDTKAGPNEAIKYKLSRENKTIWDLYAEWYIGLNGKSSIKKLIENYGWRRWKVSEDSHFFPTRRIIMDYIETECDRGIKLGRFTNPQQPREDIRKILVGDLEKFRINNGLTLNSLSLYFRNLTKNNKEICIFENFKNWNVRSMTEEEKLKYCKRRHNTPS
Outline: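 Full-length yeast transcription factors or their DNA-binding domains, GST-tagged and expressed with PURExpress, were applied at about 100-200 nM to universal all-10-mer Agilent arrays. These arrays had been made double-stranded by primer extension on fresh or once-stripped slides. Detection used fluorescent anti-GST, normalisation used masliner, and E-scores for ungapped eight-base words pooled with reverse complements came from the Universal PBM Analysis Suite.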

First: AACCATCC
Second: AACCTACC
The “PBM E-score” value of the first is lower: -0.131 for the first, -0.0387 for the second.

Going from AATGAACG to AATACGAG, the “PBM E-score” value rises from -0.133 to 0.0404.

Going from CGAACACC to CATAGTTC, the “PBM E-score” value rises from -0.135 to -0.035.

Compared with CTGGGGGA, CAATGGGG is higher in “PBM E-score” value: -0.108 for the first, 0.00495 for the second.

Going from CCGCTCTA to AGGAGGAC, the “PBM E-score” value falls from 0.0454 to -0.227.

Compared with CGGCATTA, CCCAGCGG is lower in “PBM E-score” value: 0.116 for the first, 0.0358 for the second.

Compared with ATTGGGCC, AACCACGG is lower in “PBM E-score” value: 0.138 for the first, -0.173 for the second.

Compared with ATATAATC, GCATGGCC is lower in “PBM E-score” value: -0.0288 for the first, -0.149 for the second.

Compared with GCCTTCCC, TCGTACGA is lower in “PBM E-score” value: -0.185 for the first, -0.274 for the second.

Compared with AGCGAACC, AGGTCACT is higher in “PBM E-score” value: -0.113 for the first, -0.0258 for the second.

Compared with ACGGTAGG, AGTGGAAC is higher in “PBM E-score” value: -0.221 for the first, 0.364 for the second.

First: CTGGGTAC
Second: CAGGCTTA
The “PBM E-score” value of the first is higher: 0.121 for the first, -0.172 for the second.

First: TCCGTAGA
Second: TAAACCTA
The “PBM E-score” value of the first is higher: 0.0594 for the first, 0.024 for the second.

Going from ATGATCTA to CGATAGCA, the “PBM E-score” value falls from -0.0433 to -0.177.

First: CTCATCAA
Second: CATACGGC
The “PBM E-score” value of the first is higher: 0.0408 for the first, -0.262 for the second.

First: GATATAGA
Second: AGGGCGCC
The “PBM E-score” value of the first is lower: 0.0968 for the first, 0.399 for the second.

Going from ATTCGCTA to AAACCGTA, the “PBM E-score” value rises from -0.14 to 0.0594.

Going from AATCATCC to CCTTCTAG, the “PBM E-score” value rises from -0.0883 to -0.0861.

First: CTGTCTGC
Second: AGGCTAGA
The “PBM E-score” value of the first is higher: -0.0895 for the first, -0.101 for the second.

Compared with ACTAGGCT, CACGCACC is higher in “PBM E-score” value: -0.00625 for the first, 0.0442 for the second.

Going from ACCAGTAC to ACGGTTGG, the “PBM E-score” value falls from 0.0315 to -0.00426.

Compared with CGACCCCA, CTCAACCA is higher in “PBM E-score” value: -0.00458 for the first, 0.0391 for the second.

First: CGGTGCGC
Second: CACTGCTC
The “PBM E-score” value of the first is lower: -0.109 for the first, 0.0126 for the second.

Going from GGTTATAC to CACGTCTA, the “PBM E-score” value falls from -0.0154 to -0.0627.

Going from CGCACGAG to CTATACAG, the “PBM E-score” value falls from 0.00045 to 0.00024.

Compared with AGTTCTTA, ATATACCC is higher in “PBM E-score” value: -0.114 for the first, -0.0594 for the second.

Compared with CGCGAGCG, ATGAGAAT is higher in “PBM E-score” value: -0.00528 for the first, 0.0213 for the second.

First: AAGACACT
Second: AGGTCTGG
The “PBM E-score” value of the first is higher: -0.1 for the first, -0.171 for the second.

First: GACATACC
Second: ATACACTG
The “PBM E-score” value of the first is lower: -0.198 for the first, 0.033 for the second.

First: GCTGGGAC
Second: ACACTCGG
The “PBM E-score” value of the first is lower: -0.138 for the first, 0.0311 for the second.

Going from AATCACTG to GTATGAAC, the “PBM E-score” value falls from 0.0615 to -0.0577.

First: AATCTTTC
Second: GCACCCTA
The “PBM E-score” value of the first is lower: 0.0966 for the first, 0.297 for the second.

Going from AATCCGTA to GGGGTAAA, the “PBM E-score” value falls from -0.045 to -0.199.

First: AGTAGGAG
Second: AGAAGGTG
The “PBM E-score” value of the first is lower: 0.0108 for the first, 0.155 for the second.

Going from GGGACTGA to CTGGATGA, the “PBM E-score” value rises from -0.201 to 0.0353.

Going from CCGCTAGA to AGAAAGCT, the “PBM E-score” value falls from -0.00443 to -0.312.

First: TCAGATAA
Second: CGAAGAGA
The “PBM E-score” value of the first is lower: -0.0721 for the first, 0.0171 for the second.

Going from AGGCATCA to CGCCGACC, the “PBM E-score” value rises from -0.162 to -0.117.

Compared with CCGCACCC, ACGCCCAG is higher in “PBM E-score” value: 0.184 for the first, 0.203 for the second.

First: GGCGGGCA
Second: ACGGACCT
The “PBM E-score” value of the first is higher: -0.0479 for the first, -0.117 for the second.

Compared with AGGAAGCG, AGATCGCA is lower in “PBM E-score” value: 0.354 for the first, -0.185 for the second.

First: AACAGTCC
Second: TAGTCGAA
The “PBM E-score” value of the first is lower: -0.291 for the first, 0.0281 for the second.

Going from AGTACGAA to GCTGGCGA, the “PBM E-score” value rises from -0.0797 to 0.146.

Compared with CAGTGGAC, ATGCCTCA is lower in “PBM E-score” value: -0.0204 for the first, -0.124 for the second.

First: CGGAGCAG
Second: GTAGTAGA
The “PBM E-score” value of the first is lower: 0.0182 for the first, 0.115 for the second.

Compared with CAACAACA, CGCCAGCA is lower in “PBM E-score” value: -0.00729 for the first, -0.0899 for the second.

First: TATATGCA
Second: ATGCGTAG
The “PBM E-score” value of the first is higher: 0.148 for the first, -0.184 for the second.

Going from ACGATACT to AATGCCAG, the “PBM E-score” value rises from -0.00437 to 0.106.

Compared with CCTGCATC, ATTATAGC is lower in “PBM E-score” value: 0.162 for the first, 0.103 for the second.

Going from CGGCGAGA to ATGCCACC, the “PBM E-score” value falls from -0.18 to -0.181.

First: CTACATAC
Second: ATTATCCA
The “PBM E-score” value of the first is lower: 0.079 for the first, 0.0984 for the second.

First: CTGTGTTA
Second: GGTTTCTA
The “PBM E-score” value of the first is lower: -0.145 for the first, 0.249 for the second.

First: CCGGCCAA
Second: GTCGTTCA
The “PBM E-score” value of the first is lower: -0.0652 for the first, -0.0179 for the second.

Compared with GATTTAAC, CTACGGCA is higher in “PBM E-score” value: -0.145 for the first, 0.0224 for the second.

Going from AATTGTGG to ACAGGTCG, the “PBM E-score” value falls from 0.166 to 0.0483.

Going from AACCAACC to ATAGTTAC, the “PBM E-score” value rises from -0.19 to 0.0357.

Compared with GGTGTAAA, CTACACTA is higher in “PBM E-score” value: -0.0862 for the first, 0.0262 for the second.

Going from CTTACTTA to CACGTTAC, the “PBM E-score” value rises from -0.0912 to -0.0289.

First: CTGTAGGC
Second: TCTCATCA
The “PBM E-score” value of the first is lower: -0.115 for the first, -0.105 for the second.

First: ATTAATCG
Second: GGCTCTGA
The “PBM E-score” value of the first is higher: 0.0955 for the first, -0.09 for the second.

First: GTGGGGCA
Second: ATCACTTA
The “PBM E-score” value of the first is higher: 0.0277 for the first, -0.176 for the second.

Going from CTAGGGAG to TGGTCCAA, the “PBM E-score” value falls from 0.0107 to -0.0643.

Going from ACACGATA to GAAAGCAA, the “PBM E-score” value falls from 0.0731 to -0.188.

Compared with GACCTAAA, AGGTAGGA is lower in “PBM E-score” value: 0.137 for the first, -0.00243 for the second.

First: GTGTAGTA
Second: CTGGCTGA
The “PBM E-score” value of the first is higher: -0.0745 for the first, -0.225 for the second.

First: AACGTCGT
Second: AGGGTCAT
The “PBM E-score” value of the first is higher: -0.0165 for the first, -0.311 for the second.

Going from AGCGTACG to GGGCCCCC, the “PBM E-score” value rises from -0.221 to -0.0699.

Going from AACCCCGA to TGAGCGAA, the “PBM E-score” value falls from 0.0757 to -0.0526.

First: CTAGAACA
Second: CCGTAAGA
The “PBM E-score” value of the first is higher: 0.0582 for the first, -0.0115 for the second.

First: ACCTTAGC
Second: CTCAAAGC
The “PBM E-score” value of the first is lower: -0.209 for the first, -0.181 for the second.

Going from AAGGCCCT to CCCACCAA, the “PBM E-score” value rises from -0.139 to 0.159.

Going from ATTAATAG to AGTCGCAA, the “PBM E-score” value falls from 0.196 to -0.0494.

Compared with CTCCACTA, AATCGCGT is lower in “PBM E-score” value: 0.215 for the first, 0.132 for the second.

Compared with AGATCCAG, ATCAGTTC is lower in “PBM E-score” value: 0.252 for the first, -0.0665 for the second.

Going from GAGAGCTC to GAATGTGA, the “PBM E-score” value rises from -0.255 to -0.129.

Compared with CATTCGCA, TCACCTAA is higher in “PBM E-score” value: -0.0163 for the first, 0.0538 for the second.

First: AATCGGTA
Second: AGTTGGAA
The “PBM E-score” value of the first is lower: 0.138 for the first, 0.187 for the second.

Going from AATTATGT to AAACGTCG, the “PBM E-score” value rises from 0.032 to 0.0491.

Going from ACTACGCG to CCGAATCG, the “PBM E-score” value falls from 0.0454 to -0.0347.

Compared with AGACCACA, AGAAGAGC is higher in “PBM E-score” value: -0.0831 for the first, 0.027 for the second.

Going from GAACTGGC to ATAGGGGC, the “PBM E-score” value rises from 0.116 to 0.127.

First: CACCAGTA
Second: GCAGTGGC
The “PBM E-score” value of the first is higher: 0.0978 for the first, -0.0564 for the second.

Going from AGAGACGA to CCGTGAGC, the “PBM E-score” value falls from -0.168 to -0.236.

First: ACCGTTCC
Second: AAACATAT
The “PBM E-score” value of the first is lower: -0.187 for the first, 0.068 for the second.

Compared with CCACAGTC, CAGCGTAA is higher in “PBM E-score” value: -0.16 for the first, 0.00692 for the second.

Going from CGATCGTC to TCAACCGA, the “PBM E-score” value rises from -0.11 to -0.0286.
